B1: MS2 coat protein; the commonest letter at each place (parent)
chain: MASNFTQFVLVDNGGTGDVTVAPSNFANGVAEWISSNSRSQAYKVTCSVRQSSAQNRKYTIKVEVPKVATQTVGGVELPVAAWRSYLNMELTIPIFATNSDCELIVKAMQGLLKDGNPIPSAIAANSGIY

Variants of: B1
Experiment: apparent fitness score (VLP assembly selection enrichment vs plasmid library) (log10 ratio); higher = better expression / assembly into well-formed VLPs
Experimental: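 SyMAPS: NNK codon saturation mutagenesis of every codon of the MS2 bacteriophage coat protein (EMPIRIC cloning), expressed overnight in E. coli DH10B at 37 °C. Assembled VLPs were selected by ammonium sulfate precipitation plus FPLC size-exclusion chromatography, and the encapsidated RNA was sequenced. Apparent fitness score = log10 of the mean over 3 biological replicates of (percent abundance in the VLP library / percent abundance in the plasmid library). Variants absent after selection were set to 0.0001, i.e. -4.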
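Note: counts from Illumina MiSeq reads, cDNA of packaged RNA versus plasmid DNA taken before selection, each replicate independent from library construction onward, expression induced with 0.1% arabinose.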

| Variant | apparent fitness score (log10) |
| --- | --- |
| MDSNFTQFVLVDNGGTGDVTVAPSNFANGVAEWISSNSRSQAYKVTCSVRQSSAQNRKYTIKVEVPKVATQTVGGVELPVAAWRSYLNMELTIPIFATNSDCELIVKAMQGLLKDGNPIPSAIAANSGIY [A2D] | -0.514 |
| MESNFTQFVLVDNGGTGDVTVAPSNFANGVAEWISSNSRSQAYKVTCSVRQSSAQNRKYTIKVEVPKVATQTVGGVELPVAAWRSYLNMELTIPIFATNSDCELIVKAMQGLLKDGNPIPSAIAANSGIY [A2E] | -0.812 |
| MGSNFTQFVLVDNGGTGDVTVAPSNFANGVAEWISSNSRSQAYKVTCSVRQSSAQNRKYTIKVEVPKVATQTVGGVELPVAAWRSYLNMELTIPIFATNSDCELIVKAMQGLLKDGNPIPSAIAANSGIY [A2G] | 0.379 |
| MPSNFTQFVLVDNGGTGDVTVAPSNFANGVAEWISSNSRSQAYKVTCSVRQSSAQNRKYTIKVEVPKVATQTVGGVELPVAAWRSYLNMELTIPIFATNSDCELIVKAMQGLLKDGNPIPSAIAANSGIY [A2P] | 0.0945 |
| MSSNFTQFVLVDNGGTGDVTVAPSNFANGVAEWISSNSRSQAYKVTCSVRQSSAQNRKYTIKVEVPKVATQTVGGVELPVAAWRSYLNMELTIPIFATNSDCELIVKAMQGLLKDGNPIPSAIAANSGIY [A2S] | -0.251 |
| MTSNFTQFVLVDNGGTGDVTVAPSNFANGVAEWISSNSRSQAYKVTCSVRQSSAQNRKYTIKVEVPKVATQTVGGVELPVAAWRSYLNMELTIPIFATNSDCELIVKAMQGLLKDGNPIPSAIAANSGIY [A2T] | 0.845 |
| MVSNFTQFVLVDNGGTGDVTVAPSNFANGVAEWISSNSRSQAYKVTCSVRQSSAQNRKYTIKVEVPKVATQTVGGVELPVAAWRSYLNMELTIPIFATNSDCELIVKAMQGLLKDGNPIPSAIAANSGIY [A2V] | -0.147 |
| MAANFTQFVLVDNGGTGDVTVAPSNFANGVAEWISSNSRSQAYKVTCSVRQSSAQNRKYTIKVEVPKVATQTVGGVELPVAAWRSYLNMELTIPIFATNSDCELIVKAMQGLLKDGNPIPSAIAANSGIY [S3A] | 0.439 |
| MACNFTQFVLVDNGGTGDVTVAPSNFANGVAEWISSNSRSQAYKVTCSVRQSSAQNRKYTIKVEVPKVATQTVGGVELPVAAWRSYLNMELTIPIFATNSDCELIVKAMQGLLKDGNPIPSAIAANSGIY [S3C] | < -4 |
| MADNFTQFVLVDNGGTGDVTVAPSNFANGVAEWISSNSRSQAYKVTCSVRQSSAQNRKYTIKVEVPKVATQTVGGVELPVAAWRSYLNMELTIPIFATNSDCELIVKAMQGLLKDGNPIPSAIAANSGIY [S3D] | -0.61 |
| MAFNFTQFVLVDNGGTGDVTVAPSNFANGVAEWISSNSRSQAYKVTCSVRQSSAQNRKYTIKVEVPKVATQTVGGVELPVAAWRSYLNMELTIPIFATNSDCELIVKAMQGLLKDGNPIPSAIAANSGIY [S3F] | -0.277 |
| MAGNFTQFVLVDNGGTGDVTVAPSNFANGVAEWISSNSRSQAYKVTCSVRQSSAQNRKYTIKVEVPKVATQTVGGVELPVAAWRSYLNMELTIPIFATNSDCELIVKAMQGLLKDGNPIPSAIAANSGIY [S3G] | 0.319 |
| MAHNFTQFVLVDNGGTGDVTVAPSNFANGVAEWISSNSRSQAYKVTCSVRQSSAQNRKYTIKVEVPKVATQTVGGVELPVAAWRSYLNMELTIPIFATNSDCELIVKAMQGLLKDGNPIPSAIAANSGIY [S3H] | 0.428 |
| MAINFTQFVLVDNGGTGDVTVAPSNFANGVAEWISSNSRSQAYKVTCSVRQSSAQNRKYTIKVEVPKVATQTVGGVELPVAAWRSYLNMELTIPIFATNSDCELIVKAMQGLLKDGNPIPSAIAANSGIY [S3I] | -0.434 |
| MALNFTQFVLVDNGGTGDVTVAPSNFANGVAEWISSNSRSQAYKVTCSVRQSSAQNRKYTIKVEVPKVATQTVGGVELPVAAWRSYLNMELTIPIFATNSDCELIVKAMQGLLKDGNPIPSAIAANSGIY [S3L] | < -4 |
| MANNFTQFVLVDNGGTGDVTVAPSNFANGVAEWISSNSRSQAYKVTCSVRQSSAQNRKYTIKVEVPKVATQTVGGVELPVAAWRSYLNMELTIPIFATNSDCELIVKAMQGLLKDGNPIPSAIAANSGIY [S3N] | -0.786 |
| MAPNFTQFVLVDNGGTGDVTVAPSNFANGVAEWISSNSRSQAYKVTCSVRQSSAQNRKYTIKVEVPKVATQTVGGVELPVAAWRSYLNMELTIPIFATNSDCELIVKAMQGLLKDGNPIPSAIAANSGIY [S3P] | -0.483 |
| MARNFTQFVLVDNGGTGDVTVAPSNFANGVAEWISSNSRSQAYKVTCSVRQSSAQNRKYTIKVEVPKVATQTVGGVELPVAAWRSYLNMELTIPIFATNSDCELIVKAMQGLLKDGNPIPSAIAANSGIY [S3R] | 0.509 |
| MATNFTQFVLVDNGGTGDVTVAPSNFANGVAEWISSNSRSQAYKVTCSVRQSSAQNRKYTIKVEVPKVATQTVGGVELPVAAWRSYLNMELTIPIFATNSDCELIVKAMQGLLKDGNPIPSAIAANSGIY [S3T] | 1.14 |
| MAVNFTQFVLVDNGGTGDVTVAPSNFANGVAEWISSNSRSQAYKVTCSVRQSSAQNRKYTIKVEVPKVATQTVGGVELPVAAWRSYLNMELTIPIFATNSDCELIVKAMQGLLKDGNPIPSAIAANSGIY [S3V] | -0.188 |
| MAWNFTQFVLVDNGGTGDVTVAPSNFANGVAEWISSNSRSQAYKVTCSVRQSSAQNRKYTIKVEVPKVATQTVGGVELPVAAWRSYLNMELTIPIFATNSDCELIVKAMQGLLKDGNPIPSAIAANSGIY [S3W] | -1.33 |
| MAYNFTQFVLVDNGGTGDVTVAPSNFANGVAEWISSNSRSQAYKVTCSVRQSSAQNRKYTIKVEVPKVATQTVGGVELPVAAWRSYLNMELTIPIFATNSDCELIVKAMQGLLKDGNPIPSAIAANSGIY [S3Y] | 0.866 |

| Variant | apparent fitness score (log10) |
| --- | --- |
| MASAFTQFVLVDNGGTGDVTVAPSNFANGVAEWISSNSRSQAYKVTCSVRQSSAQNRKYTIKVEVPKVATQTVGGVELPVAAWRSYLNMELTIPIFATNSDCELIVKAMQGLLKDGNPIPSAIAANSGIY [N4A] | -1.63 |
| MASCFTQFVLVDNGGTGDVTVAPSNFANGVAEWISSNSRSQAYKVTCSVRQSSAQNRKYTIKVEVPKVATQTVGGVELPVAAWRSYLNMELTIPIFATNSDCELIVKAMQGLLKDGNPIPSAIAANSGIY [N4C] | < -4 |
| MASDFTQFVLVDNGGTGDVTVAPSNFANGVAEWISSNSRSQAYKVTCSVRQSSAQNRKYTIKVEVPKVATQTVGGVELPVAAWRSYLNMELTIPIFATNSDCELIVKAMQGLLKDGNPIPSAIAANSGIY [N4D] | -0.72 |
| MASEFTQFVLVDNGGTGDVTVAPSNFANGVAEWISSNSRSQAYKVTCSVRQSSAQNRKYTIKVEVPKVATQTVGGVELPVAAWRSYLNMELTIPIFATNSDCELIVKAMQGLLKDGNPIPSAIAANSGIY [N4E] | -1.14 |
| MASFFTQFVLVDNGGTGDVTVAPSNFANGVAEWISSNSRSQAYKVTCSVRQSSAQNRKYTIKVEVPKVATQTVGGVELPVAAWRSYLNMELTIPIFATNSDCELIVKAMQGLLKDGNPIPSAIAANSGIY [N4F] | < -4 |
| MASGFTQFVLVDNGGTGDVTVAPSNFANGVAEWISSNSRSQAYKVTCSVRQSSAQNRKYTIKVEVPKVATQTVGGVELPVAAWRSYLNMELTIPIFATNSDCELIVKAMQGLLKDGNPIPSAIAANSGIY [N4G] | -0.732 |
| MASHFTQFVLVDNGGTGDVTVAPSNFANGVAEWISSNSRSQAYKVTCSVRQSSAQNRKYTIKVEVPKVATQTVGGVELPVAAWRSYLNMELTIPIFATNSDCELIVKAMQGLLKDGNPIPSAIAANSGIY [N4H] | < -4 |
| MASIFTQFVLVDNGGTGDVTVAPSNFANGVAEWISSNSRSQAYKVTCSVRQSSAQNRKYTIKVEVPKVATQTVGGVELPVAAWRSYLNMELTIPIFATNSDCELIVKAMQGLLKDGNPIPSAIAANSGIY [N4I] | 0.664 |
| MASKFTQFVLVDNGGTGDVTVAPSNFANGVAEWISSNSRSQAYKVTCSVRQSSAQNRKYTIKVEVPKVATQTVGGVELPVAAWRSYLNMELTIPIFATNSDCELIVKAMQGLLKDGNPIPSAIAANSGIY [N4K] | -0.642 |
| MASLFTQFVLVDNGGTGDVTVAPSNFANGVAEWISSNSRSQAYKVTCSVRQSSAQNRKYTIKVEVPKVATQTVGGVELPVAAWRSYLNMELTIPIFATNSDCELIVKAMQGLLKDGNPIPSAIAANSGIY [N4L] | -0.631 |
| MASMFTQFVLVDNGGTGDVTVAPSNFANGVAEWISSNSRSQAYKVTCSVRQSSAQNRKYTIKVEVPKVATQTVGGVELPVAAWRSYLNMELTIPIFATNSDCELIVKAMQGLLKDGNPIPSAIAANSGIY [N4M] | -0.0268 |
| MASPFTQFVLVDNGGTGDVTVAPSNFANGVAEWISSNSRSQAYKVTCSVRQSSAQNRKYTIKVEVPKVATQTVGGVELPVAAWRSYLNMELTIPIFATNSDCELIVKAMQGLLKDGNPIPSAIAANSGIY [N4P] | -1.72 |
| MASQFTQFVLVDNGGTGDVTVAPSNFANGVAEWISSNSRSQAYKVTCSVRQSSAQNRKYTIKVEVPKVATQTVGGVELPVAAWRSYLNMELTIPIFATNSDCELIVKAMQGLLKDGNPIPSAIAANSGIY [N4Q] | -0.81 |
| MASRFTQFVLVDNGGTGDVTVAPSNFANGVAEWISSNSRSQAYKVTCSVRQSSAQNRKYTIKVEVPKVATQTVGGVELPVAAWRSYLNMELTIPIFATNSDCELIVKAMQGLLKDGNPIPSAIAANSGIY [N4R] | -0.922 |
| MASSFTQFVLVDNGGTGDVTVAPSNFANGVAEWISSNSRSQAYKVTCSVRQSSAQNRKYTIKVEVPKVATQTVGGVELPVAAWRSYLNMELTIPIFATNSDCELIVKAMQGLLKDGNPIPSAIAANSGIY [N4S] | -1.18 |
| MASTFTQFVLVDNGGTGDVTVAPSNFANGVAEWISSNSRSQAYKVTCSVRQSSAQNRKYTIKVEVPKVATQTVGGVELPVAAWRSYLNMELTIPIFATNSDCELIVKAMQGLLKDGNPIPSAIAANSGIY [N4T] | 0.827 |
| MASVFTQFVLVDNGGTGDVTVAPSNFANGVAEWISSNSRSQAYKVTCSVRQSSAQNRKYTIKVEVPKVATQTVGGVELPVAAWRSYLNMELTIPIFATNSDCELIVKAMQGLLKDGNPIPSAIAANSGIY [N4V] | 0.495 |
| MASWFTQFVLVDNGGTGDVTVAPSNFANGVAEWISSNSRSQAYKVTCSVRQSSAQNRKYTIKVEVPKVATQTVGGVELPVAAWRSYLNMELTIPIFATNSDCELIVKAMQGLLKDGNPIPSAIAANSGIY [N4W] | -1.15 |
| MASYFTQFVLVDNGGTGDVTVAPSNFANGVAEWISSNSRSQAYKVTCSVRQSSAQNRKYTIKVEVPKVATQTVGGVELPVAAWRSYLNMELTIPIFATNSDCELIVKAMQGLLKDGNPIPSAIAANSGIY [N4Y] | -1.15 |
| MASNATQFVLVDNGGTGDVTVAPSNFANGVAEWISSNSRSQAYKVTCSVRQSSAQNRKYTIKVEVPKVATQTVGGVELPVAAWRSYLNMELTIPIFATNSDCELIVKAMQGLLKDGNPIPSAIAANSGIY [F5A] | -1.33 |
| MASNCTQFVLVDNGGTGDVTVAPSNFANGVAEWISSNSRSQAYKVTCSVRQSSAQNRKYTIKVEVPKVATQTVGGVELPVAAWRSYLNMELTIPIFATNSDCELIVKAMQGLLKDGNPIPSAIAANSGIY [F5C] | -0.23 |
| MASNDTQFVLVDNGGTGDVTVAPSNFANGVAEWISSNSRSQAYKVTCSVRQSSAQNRKYTIKVEVPKVATQTVGGVELPVAAWRSYLNMELTIPIFATNSDCELIVKAMQGLLKDGNPIPSAIAANSGIY [F5D] | < -4 |
